In all, about 310,000 compounds went through this assay and about 2,200 (0.71%) showed an effect of 50% or more. Effects have a minus sign here. This is one part of the list. Where a SMILES comes first, the peptide text is derived from it. The star is where a group is joined. Boc = CC(C)(C)OC(=O)*
target: human ether-à-go-go-related gene (hERG) potassium channel (human, UniProt Q12809); assay: primary screen, population patch clamp on CHO cells stably expressing hERG
Sequence (Q12809 whole entry, looked up): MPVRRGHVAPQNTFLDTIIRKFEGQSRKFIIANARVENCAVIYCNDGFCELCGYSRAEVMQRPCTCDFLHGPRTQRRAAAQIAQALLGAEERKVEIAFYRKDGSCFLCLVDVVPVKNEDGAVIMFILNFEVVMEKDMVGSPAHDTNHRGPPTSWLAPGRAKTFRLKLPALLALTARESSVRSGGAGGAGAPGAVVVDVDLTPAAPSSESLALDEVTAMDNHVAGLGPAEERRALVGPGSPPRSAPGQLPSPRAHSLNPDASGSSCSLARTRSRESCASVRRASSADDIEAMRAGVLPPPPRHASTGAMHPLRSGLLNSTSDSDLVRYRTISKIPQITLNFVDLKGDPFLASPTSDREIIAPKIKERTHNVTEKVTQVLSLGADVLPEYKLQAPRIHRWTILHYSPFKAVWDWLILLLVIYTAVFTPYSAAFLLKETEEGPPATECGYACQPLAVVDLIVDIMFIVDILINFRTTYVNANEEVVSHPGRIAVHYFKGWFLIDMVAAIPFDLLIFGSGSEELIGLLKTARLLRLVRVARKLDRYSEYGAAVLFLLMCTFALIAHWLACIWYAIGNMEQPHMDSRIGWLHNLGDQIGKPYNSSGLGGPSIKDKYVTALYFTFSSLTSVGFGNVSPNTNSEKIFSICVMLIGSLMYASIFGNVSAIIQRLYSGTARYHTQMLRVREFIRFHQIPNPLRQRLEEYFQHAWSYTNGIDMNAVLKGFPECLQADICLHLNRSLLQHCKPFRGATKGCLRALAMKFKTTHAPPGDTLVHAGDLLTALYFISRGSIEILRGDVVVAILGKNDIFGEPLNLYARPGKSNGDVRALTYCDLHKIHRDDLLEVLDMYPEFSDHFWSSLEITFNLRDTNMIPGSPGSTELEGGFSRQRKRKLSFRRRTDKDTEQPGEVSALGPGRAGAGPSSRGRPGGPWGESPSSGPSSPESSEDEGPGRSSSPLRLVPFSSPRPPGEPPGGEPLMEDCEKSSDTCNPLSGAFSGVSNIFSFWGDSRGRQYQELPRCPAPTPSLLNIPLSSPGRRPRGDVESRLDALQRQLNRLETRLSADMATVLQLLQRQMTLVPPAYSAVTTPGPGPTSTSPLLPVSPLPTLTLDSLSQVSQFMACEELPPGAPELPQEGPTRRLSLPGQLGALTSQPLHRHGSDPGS

Point of comparison: `O=C(Cn1cnc(S(=O)(=O)N2CCCCC2)c1)Nc1ccc(OC(F)(F)F)cc1`, “hERG current change (%, negative = inhibition) at 1uM” value 11.7%. Against it:
- CCOc1ccccc1NC(C)C(=O)Nc1cc(C(F)(F)F)ccc1N1CCOCC1 (stereo not shown) — lower, 6.81%
- O=C(c1ccc2c(c1)OCO2)N1CCN(C(=O)c2ccco2)CC1 — lower, 3.8%
- Cc1ccc(-c2n[nH]c(=S)n2/N=C/c2ccncc2)cc1 — higher, 14.3%
- C[C@@H]1CC[C@]2(O[C@@H](CCO)C[C@@H](O)[C@@H]2O)O1 — higher, 12.9%
- O=C(NCCN1CCCCC1)Nc1ccc(Cl)cc1 — lower, -4.04%
- Cc1cccc2nc(C(=O)Nc3cccc(C(=O)NC4CC4)c3)cn12 — higher, 12.4%
- O=C(NN1CCCCC1)c1ccc(COc2ccc(Cl)cc2)cc1 — lower, 3.04%
- O=C(CC1COc2ccccc2O1)NC1CCCCC1 (stereo not shown) — higher, 12.4%
- COc1cc(C(C)=O)ccc1Oc1ncccn1 — higher, 13.3%
- COc1ccc(NC(=O)CCCn2cnc3ccccc3c2=O)c(OC)c1 — lower, -2.39%
- Cc1ccc(C(=O)NN2C(=O)C3C4c5ccccc5C(c5ccccc54)C3C2=O)cc1 (stereo not shown) — lower, 3.88%
- CC(C)CCn1c(Sc2nc3ccccc3s2)nc2c1c(=O)[nH]c(=O)n2C — lower, 6.6%
- COc1ccc(C(=O)O)cc1S(=O)(=O)Nc1cc(Cl)ccc1N1CCOCC1 — higher, 11.8%
- O=C(CCNC(=O)Cn1ccc2ccccc2c1=O)NCCC1=CCCCC1 — lower, -18.1%
- CN(C)c1ccc(C(CNC(=O)c2ccccc2Br)c2c[nH]c3ccccc23)cc1 (stereo not shown) — lower, 7.31%
- NCCCC[C@@H]1NC(=O)c2cc([N+](=O)[O-])cc(F)c2NCCCC[C@@H](C(N)=O)NC(=O)[C@H](CCC(N)=O)NC1=O — lower, 10.5%
- CCc1ccc2nc(N(CCCN(C)C)C(=O)c3ccc(S(=O)(=O)N(C)C4CCCCC4)cc3)sc2c1.Cl — lower, 9.37%
- O=C(Nc1ccc(S(=O)(=O)Nc2ncccn2)cc1)c1cnc(Cl)c(Cl)c1 — lower, 8.48%
- NC(=O)NC(CC(=O)NNC(=O)c1ccccn1)c1ccccc1Cl (stereo not shown) — lower, 6.66%
- O=C(CCSCc1ccccc1Cl)NCc1ccco1 — higher, 27.8%
- CN1CCN(S(=O)(=O)c2ccc(N3CCc4ccccc4C3)nc2)CC1 — higher, 15.3%
- COCCCNc1nc2c(-c3cccc(C(F)(F)F)c3)nnn2c2ccccc12 — lower, 0.0351%
- O=c1/c(=C/c2ccc(O)cc2)sc2nc3cc(Br)cnc3n12 — higher, 15%
- CCN1C(=O)[C@H]2[C@@H](c3ccccc3)N3C(=O)N(c4cccc(F)c4)C(=O)[C@@]3(CC(C)C)[C@H]2C1=O — higher, 13.7%
- Cc1ccc(Nc2nc3c(c(=O)[nH]2)CCCC3)cc1 — lower, 0.195%
- Cc1nn(Cc2ccc([N+](=O)[O-])cc2)c(=O)n1N(C)c1ncc(C(F)(F)F)cc1Cl — lower, 4.87%
- CCOC(=O)NC1c2ccccc2Oc2ccccc21 — lower, 2.59%
- Nc1nonc1-n1nnc(C(=O)N/N=C/c2ccccc2Br)c1CN1CCCC1 — higher, 13.3%
- CCCNC(=S)N1CCC(NC(=O)c2ccc(OC)cc2)CC1 — lower, 6.64%
- CC(=O)Nc1ccc(S(=O)(=O)n2cnc3cc(C)c(C)cc32)cc1 — higher, 13.3%
- O=C1ON=C(c2ccccc2)/C1=C/c1ccccc1 — lower, 10.9%
- O=C(COC(=O)c1ccc(N2CCCC2=O)cc1)NCc1ccco1 — lower, 3.17%
- COc1ccc(C(CNC(=O)c2cccc(NC(=O)c3cccs3)c2)N2CCCC2)cc1 (stereo not shown) — lower, -35.9%
- CCCCNC(=O)CCNS(=O)(=O)c1ccc(C)cc1 — lower, 6.65%
- Cc1ccc(N2C(=O)NC(=O)/C(=C\c3cc(C)n(-c4ccc(C(=O)O)cc4)c3C)C2=O)cc1 — higher, 21.7%
- CCC(C)C(NC(=O)OC(C)(C)C)C(=O)NC(C(=O)N1CCCC1C(N)=O)C(C)CC (stereo not drawn) (Boc-Ile-Ile-Pro-NH2; configuration not given here) — higher, 15.5%
- CCOC(=O)Cn1c(=O)oc2cc(S(=O)(=O)Nc3cccc(C)c3)ccc21 — lower, 1.47%
- COc1cccc(N(CC(=O)NC2CCCC2)C(=O)Cn2nnc(-c3ccc(C)o3)n2)c1 — lower, 8.31%
- CC(C)(C)c1ccc(OCC(=O)N(Cc2cccs2)C2CCS(=O)(=O)C2)cc1 (stereo not shown) — lower, 2.59%
- CCOC(=O)c1c(C)[nH]c(C)c1C(=O)COC(=O)c1cc2ccccc2cc1O — higher, 16.1%
- Cc1ccc(C(=O)NCCn2cc(SCC(=O)Nc3nnc(C)s3)c3ccccc32)cc1 — lower, 3.12%
- O=C(NCCCN1CCOCC1)C1CCN(S(=O)(=O)c2cccc(Cl)c2Cl)CC1 — higher, 13.5%
- Cc1ccccc1S(=O)(=O)Cc1ccc(C(=O)NCCCN2CCCC2)o1 — lower, 9.11%
- Cc1ccn(CC(=O)N2CCCC(Nc3ccc(F)c(F)c3)C2)n1 (stereo not shown) — lower, 2.97%
- CC(=O)N1c2c(cc(Br)cc2S(=O)(=O)Nc2c(C)n(C)n(-c3ccccc3)c2=O)CC1C (stereo not shown) — lower, 11.5%
- CCOC(=O)C(Cc1ccc(O)cc1)NC(=O)CNC(=O)C(CC(C)C)NC(=O)OC(C)(C)C (stereo not drawn) (Boc-Leu-Gly-Tyr-OEt; configuration not given here) — lower, 3.35%
- N#Cc1c(SCC(=O)N2CCCCC2)nsc1SCC(=O)N1CCCCC1 — higher, 17.5%
- CC(C)NC(=O)C(=O)NCC(c1ccc2c(c1)OCO2)N1CCOCC1 (stereo not shown) — higher, 13.4%
- CC(C)(C)c1ccc(/C=N/N2C(=O)CSC2=S)cc1 — higher, 16.4%
- CCCN1CCC(NC(=O)C2CCN(C(C)=O)CC2)CC1 — lower, 10.9%
- CC1CCCC(C)N1C(=O)CNCc1ccc2c(c1)OCO2.O=C(O)C(=O)O (stereo not shown) — higher, 13%
